# IC50 is the fitted dose that halves viability relative to control wells, and lower means more sensitive; where the fit passes the top or lowest dose, that dose stands as a limit. The AUC spans the tested range (256-fold, ending at the top dose) of the same fit; values near 1 show little effect. Any top dose called inferred was calculated from the reported fits.
# How the values were obtained:
# Assay in all cases: Viability of human cancer cell lines after 72 h of drug (GDSC screen)
# CAY10603 = compound: CC(C)(C)OC(=O)Nc1ccc(-c2cc(C(=O)NCCCCCCC(=O)NO)no2)cc1 [CAY10603]; details: top dose 20 µM; top dose inferred
# Description: (§1)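 Human cancer cell lines in 384-well plates, medium with 10% serum, drug for 72 h over a 256-fold dose range (nine 2-fold or five 4-fold steps up to the top dose). Adherent lines were fixed and stained with the nucleic acid dye Syto60, suspension lines read with resazurin; signal relative to control wells, capped at 0 and 100%. One two-parameter sigmoid per drug and line, fitted in a mixed model over all curves with the slope shared within a line.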
# XMD8-92 = compound: CCOc1cc(N2CCC(O)CC2)ccc1Nc1ncc2c(n1)N(C)c1ccccc1C(=O)N2C [XMD8-92]; details: top dose 10 µM; top dose inferred
# Description: as §1
# CH5424802 = compound: CCc1cc2c(cc1N1CCC(N3CCOCC3)CC1)C(C)(C)c1[nH]c3cc(C#N)ccc3c1C2=O [CH5424802]; details: top dose 5.12 µM; top dose inferred
# Description: as §1
# ACHP (KIN001-260) = compound: N#Cc1c(C2CCNCC2)cc(-c2c(O)cccc2OCC2CC2)nc1N [ACHP (KIN001-260)]; details: top dose 20 µM; top dose inferred
# Description: as §1
cell line,measurement,setting,value
"NCI-H1876 (small cell lung carcinoma, adherent)",AUC,CAY10603,0.601
same,IC50,CAY10603,2.37 µM
same,AUC,XMD8-92,0.95
same,IC50,XMD8-92,> 10 µM
same,AUC,CH5424802,0.98
same,IC50,CH5424802,> 5.12 µM
same,AUC,ACHP (KIN001-260),0.957
same,IC50,ACHP (KIN001-260),> 20 µM
"NCI-H1915 (large cell lung carcinoma, adherent)",AUC,CAY10603,0.357
same,IC50,CAY10603,0.498 µM
same,AUC,XMD8-92,0.968
same,IC50,XMD8-92,> 10 µM
same,AUC,CH5424802,0.982
same,IC50,CH5424802,> 5.12 µM
same,AUC,ACHP (KIN001-260),0.943
same,IC50,ACHP (KIN001-260),> 20 µM
"NCI-H1944 (lung adenocarcinoma, adherent)",AUC,CAY10603,0.43
same,IC50,CAY10603,0.792 µM
same,AUC,XMD8-92,0.944
same,IC50,XMD8-92,> 10 µM
same,AUC,CH5424802,0.981
same,IC50,CH5424802,> 5.12 µM
same,AUC,ACHP (KIN001-260),0.889
same,IC50,ACHP (KIN001-260),> 20 µM
"NCI-H1975 (lung adenocarcinoma, adherent)",AUC,CAY10603,0.526
same,IC50,CAY10603,1.49 µM
same,AUC,XMD8-92,0.926
same,IC50,XMD8-92,> 10 µM
same,AUC,CH5424802,0.929
same,IC50,CH5424802,> 5.12 µM
same,AUC,ACHP (KIN001-260),0.975
same,IC50,ACHP (KIN001-260),> 20 µM
"NCI-H1993 (lung adenocarcinoma, adherent)",AUC,CAY10603,0.755
same,IC50,CAY10603,8.77 µM
same,AUC,XMD8-92,0.962
same,IC50,XMD8-92,> 10 µM
same,AUC,CH5424802,0.975
same,IC50,CH5424802,> 5.12 µM
same,AUC,ACHP (KIN001-260),0.98
same,IC50,ACHP (KIN001-260),> 20 µM
"NCI-H2087 (lung adenocarcinoma, semi-adherent)",AUC,CAY10603,0.6
same,IC50,CAY10603,2.4 µM
same,AUC,XMD8-92,0.946
same,IC50,XMD8-92,> 10 µM
same,AUC,CH5424802,0.897
same,IC50,CH5424802,> 5.12 µM
same,AUC,ACHP (KIN001-260),0.96
same,IC50,ACHP (KIN001-260),> 20 µM
"NCI-H2110 (non-small cell lung carcinoma, adherent)",AUC,CAY10603,0.445
same,IC50,CAY10603,0.884 µM
same,AUC,XMD8-92,0.938
same,IC50,XMD8-92,> 10 µM
same,AUC,CH5424802,0.977
same,IC50,CH5424802,> 5.12 µM
same,AUC,ACHP (KIN001-260),0.894
same,IC50,ACHP (KIN001-260),> 20 µM
"NCI-H2122 (lung adenocarcinoma, adherent)",AUC,CAY10603,0.848
same,IC50,CAY10603,13.5 µM
same,AUC,XMD8-92,0.953
same,IC50,XMD8-92,> 10 µM
same,AUC,CH5424802,0.989
same,IC50,CH5424802,> 5.12 µM
same,AUC,ACHP (KIN001-260),0.984
same,IC50,ACHP (KIN001-260),> 20 µM
"NCI-H2141 (small cell lung carcinoma, suspension)",AUC,CAY10603,0.662
same,IC50,CAY10603,3.48 µM
same,AUC,XMD8-92,0.99
same,IC50,XMD8-92,> 10 µM
same,AUC,CH5424802,0.989
same,IC50,CH5424802,> 5.12 µM
same,AUC,ACHP (KIN001-260),0.989
same,IC50,ACHP (KIN001-260),> 20 µM
"NCI-H2291 (lung adenocarcinoma, adherent)",AUC,CAY10603,0.976
same,IC50,CAY10603,> 20 µM
same,AUC,XMD8-92,0.975
same,IC50,XMD8-92,> 10 µM
same,AUC,CH5424802,0.983
same,IC50,CH5424802,> 5.12 µM
same,AUC,ACHP (KIN001-260),0.972
same,IC50,ACHP (KIN001-260),> 20 µM
"NCI-H2347 (lung adenocarcinoma, adherent)",AUC,CAY10603,0.653
same,IC50,CAY10603,3.65 µM
same,AUC,XMD8-92,0.87
same,IC50,XMD8-92,> 10 µM
same,AUC,CH5424802,0.971
same,IC50,CH5424802,> 5.12 µM
same,AUC,ACHP (KIN001-260),0.966
same,IC50,ACHP (KIN001-260),> 20 µM
"NCI-SNU-5 (stomach, suspension)",AUC,CAY10603,0.805
same,IC50,CAY10603,10.3 µM
same,AUC,XMD8-92,0.988
same,IC50,XMD8-92,> 10 µM
same,AUC,CH5424802,0.989
same,IC50,CH5424802,> 5.12 µM
same,AUC,ACHP (KIN001-260),0.989
same,IC50,ACHP (KIN001-260),> 20 µM
"NCI-SNU-16 (stomach, suspension)",AUC,CAY10603,0.862
same,IC50,CAY10603,13.9 µM
same,AUC,XMD8-92,0.904
same,IC50,XMD8-92,> 10 µM
same,AUC,CH5424802,0.991
same,IC50,CH5424802,> 5.12 µM
same,AUC,ACHP (KIN001-260),0.991
same,IC50,ACHP (KIN001-260),> 20 µM
"NEC8 (testis, adherent)",AUC,CAY10603,0.286
same,IC50,CAY10603,0.347 µM
same,AUC,XMD8-92,0.962
same,IC50,XMD8-92,> 10 µM
same,AUC,CH5424802,0.99
same,IC50,CH5424802,> 5.12 µM
same,AUC,ACHP (KIN001-260),0.946
same,IC50,ACHP (KIN001-260),> 20 µM
"NH-12 (neuroblastoma, adherent)",AUC,CAY10603,0.308
same,IC50,CAY10603,0.338 µM
same,AUC,XMD8-92,0.963
same,IC50,XMD8-92,> 10 µM
same,AUC,CH5424802,0.835
same,IC50,CH5424802,3.97 µM
same,AUC,ACHP (KIN001-260),0.921
same,IC50,ACHP (KIN001-260),> 20 µM
"NMC-G1 (glioma, adherent)",AUC,CAY10603,0.664
same,IC50,CAY10603,3.98 µM
same,AUC,XMD8-92,0.939
same,IC50,XMD8-92,> 10 µM
same,AUC,CH5424802,0.971
same,IC50,CH5424802,> 5.12 µM
same,AUC,ACHP (KIN001-260),0.959
same,IC50,ACHP (KIN001-260),> 20 µM
"NOMO-1 (acute myeloid leukaemia, suspension)",AUC,CAY10603,0.403
same,IC50,CAY10603,0.654 µM
same,AUC,XMD8-92,0.752
same,IC50,XMD8-92,3.72 µM
same,AUC,CH5424802,0.972
same,IC50,CH5424802,> 5.12 µM
same,AUC,ACHP (KIN001-260),0.777
same,IC50,ACHP (KIN001-260),9.14 µM
"NOS-1 (osteosarcoma, adherent)",AUC,CAY10603,0.413
same,IC50,CAY10603,0.685 µM
same,AUC,XMD8-92,0.925
same,IC50,XMD8-92,> 10 µM
same,AUC,CH5424802,0.967
same,IC50,CH5424802,> 5.12 µM
same,AUC,ACHP (KIN001-260),0.846
same,IC50,ACHP (KIN001-260),20 µM
"NTERA-2 cl.D1 (testis, adherent)",AUC,CAY10603,0.475
same,IC50,CAY10603,1.07 µM
same,AUC,XMD8-92,0.846
same,IC50,XMD8-92,7.16 µM
same,AUC,CH5424802,0.984
same,IC50,CH5424802,> 5.12 µM
same,AUC,ACHP (KIN001-260),0.961
same,IC50,ACHP (KIN001-260),> 20 µM
"NUGC-4 (stomach, adherent)",AUC,CAY10603,0.595
same,IC50,CAY10603,2.28 µM
same,AUC,XMD8-92,0.81
same,IC50,XMD8-92,5.28 µM
same,AUC,CH5424802,0.987
same,IC50,CH5424802,> 5.12 µM
same,AUC,ACHP (KIN001-260),0.949
same,IC50,ACHP (KIN001-260),> 20 µM
"NY (osteosarcoma, adherent)",AUC,CAY10603,0.988
same,IC50,CAY10603,> 20 µM
same,AUC,XMD8-92,0.904
same,IC50,XMD8-92,> 10 µM
same,AUC,CH5424802,0.989
same,IC50,CH5424802,> 5.12 µM
same,AUC,ACHP (KIN001-260),0.989
same,IC50,ACHP (KIN001-260),> 20 µM
"OACp4C (oesophagus, adherent)",AUC,CAY10603,0.34
same,IC50,CAY10603,0.408 µM
same,AUC,XMD8-92,0.883
same,IC50,XMD8-92,> 10 µM
same,AUC,CH5424802,0.913
same,IC50,CH5424802,> 5.12 µM
same,AUC,ACHP (KIN001-260),0.838
same,IC50,ACHP (KIN001-260),17.7 µM
"OC-314 (ovary, adherent)",AUC,CAY10603,0.578
same,IC50,CAY10603,1.97 µM
same,AUC,XMD8-92,0.802
same,IC50,XMD8-92,4.11 µM
same,AUC,CH5424802,0.991
same,IC50,CH5424802,> 5.12 µM
same,AUC,ACHP (KIN001-260),0.919
same,IC50,ACHP (KIN001-260),> 20 µM
"OCI-AML3 (acute myeloid leukaemia, suspension)",AUC,CAY10603,0.339
same,IC50,CAY10603,0.481 µM
same,AUC,XMD8-92,0.756
same,IC50,XMD8-92,2.99 µM
same,AUC,CH5424802,0.965
same,IC50,CH5424802,> 5.12 µM
same,AUC,ACHP (KIN001-260),0.87
same,IC50,ACHP (KIN001-260),14.3 µM
"OCI-AML5 (acute myeloid leukaemia, suspension)",AUC,CAY10603,0.301
same,IC50,CAY10603,0.366 µM
same,AUC,XMD8-92,0.962
same,IC50,XMD8-92,> 10 µM
same,AUC,CH5424802,0.948
same,IC50,CH5424802,> 5.12 µM
same,AUC,ACHP (KIN001-260),0.871
same,IC50,ACHP (KIN001-260),16.1 µM
"OCI-LY-19 (B-cell lymphoma, suspension)",AUC,CAY10603,0.278
same,IC50,CAY10603,0.31 µM
same,AUC,XMD8-92,0.912
same,IC50,XMD8-92,> 10 µM
same,AUC,CH5424802,0.981
same,IC50,CH5424802,> 5.12 µM
same,AUC,ACHP (KIN001-260),0.721
same,IC50,ACHP (KIN001-260),4.99 µM
"OCUB-M (breast, adherent)",AUC,CAY10603,0.378
same,IC50,CAY10603,0.606 µM
same,AUC,XMD8-92,0.922
same,IC50,XMD8-92,> 10 µM
same,AUC,CH5424802,0.685
same,IC50,CH5424802,0.97 µM
same,AUC,ACHP (KIN001-260),0.965
same,IC50,ACHP (KIN001-260),> 20 µM
"OE21 (oesophagus, adherent)",AUC,CAY10603,0.702
same,IC50,CAY10603,5.79 µM
same,AUC,XMD8-92,0.807
same,IC50,XMD8-92,7.63 µM
same,AUC,CH5424802,0.963
same,IC50,CH5424802,> 5.12 µM
same,AUC,ACHP (KIN001-260),0.966
same,IC50,ACHP (KIN001-260),> 20 µM
